From PubChem BioAssay AID1460 (National Center for Advancing Translational Sciences (NCATS), 2008)
The campaign covered roughly 270,000 compounds. About 5,800 (2.1%) were called active. This list was built around the results that the source calls inconclusive (neither active nor inactive); the mix of calls is not that of the screen. Calls come from the whole dose curve; as a rule, active = well fitted inhibition curve with a large enough effect; inconclusive = small, poorly fitted or top-dose-only effect; inactive = flat fitted curve, though single readings scatter. Potencies of inconclusive entries are doubtful fits and often do not repeat.
% is set by controls: 0 for no effect and ±100 for the full control effect; potency is the fitted concentration of half-maximal effect; tags give direction and shape of the fitted curve.
Note: nearly all actives have a fitted effect of over 55% in size.

Each compound was assayed against Microtubule-associated protein tau (Homo sapiens) (UniProt P10636) (assay: qHTS for Inhibitors of Tau Fibril Formation, Thioflavin T Binding). Details: recombinant tau K18 P301L (four-repeat tau fragment), heparin-induced fibrillization, ThT fluorescence; series mostly up to 57.4 µM; activity, negative = inhibition: at the top concentration.
UniProt P10636, sequence (P10636 whole entry, looked up, the tested form may be a part): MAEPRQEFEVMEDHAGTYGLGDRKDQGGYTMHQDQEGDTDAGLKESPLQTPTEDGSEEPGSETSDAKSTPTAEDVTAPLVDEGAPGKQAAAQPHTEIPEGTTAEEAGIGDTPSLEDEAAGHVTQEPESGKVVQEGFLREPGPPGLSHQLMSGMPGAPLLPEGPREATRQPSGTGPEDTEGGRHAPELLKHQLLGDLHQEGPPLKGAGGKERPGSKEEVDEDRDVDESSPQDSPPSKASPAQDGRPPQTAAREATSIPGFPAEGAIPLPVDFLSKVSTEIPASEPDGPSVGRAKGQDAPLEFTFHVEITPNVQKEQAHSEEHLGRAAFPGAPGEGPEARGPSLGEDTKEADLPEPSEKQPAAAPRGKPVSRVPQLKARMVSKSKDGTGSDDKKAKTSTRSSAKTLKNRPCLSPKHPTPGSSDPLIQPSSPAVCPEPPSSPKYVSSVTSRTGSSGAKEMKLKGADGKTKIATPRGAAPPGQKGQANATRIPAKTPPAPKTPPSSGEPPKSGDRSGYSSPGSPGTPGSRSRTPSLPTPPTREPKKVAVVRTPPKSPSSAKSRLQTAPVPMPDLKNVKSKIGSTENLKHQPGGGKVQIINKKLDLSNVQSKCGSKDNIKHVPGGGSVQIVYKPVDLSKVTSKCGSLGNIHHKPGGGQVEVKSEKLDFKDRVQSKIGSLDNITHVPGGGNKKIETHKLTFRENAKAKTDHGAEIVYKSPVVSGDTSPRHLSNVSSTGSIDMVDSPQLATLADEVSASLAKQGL
Summary of the method: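 Recombinant human tau K18 fragment […] carrying P301L, 15 uM unlabeled plus 0.24 uM Alexa 594-labeled, was fibrillized with 20 uM heparin in 100 mM sodium acetate pH 7 for 6 hr at 37 C; 30 uM ThT fluorescence read after 1 hr.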
For `CCOc1cc(NC(=S)NCC2CCCO2)c(OCC)cc1NC(=O)c1ccc(OC)cc1` (stereo not drawn), the “activity, negative = inhibition” value was inactive: -13.3%. For `COc1ccc(N(CC(=O)NCCc2ccc(C)cc2)S(=O)(=O)c2c(C)nn(C)c2C)cc1`, the “activity, negative = inhibition” value was inactive: -1.76%. `O=C(COc1ccc(Cl)cc1Cl)NN=C1c2ccccc2-c2ccccc21` was tested, and the Potency was inconclusive: 22.4 µM [inhibitor, single point]. In the case of `COc1cc(OC)cc(-c2nnc(SCC(=O)c3ccc([N+](=O)[O-])cc3)o2)c1`, the Potency is reported as inconclusive: 7.08 µM [inhibitor, full curve]. `CCN(CC)c1ccc(S(=O)(=O)N2CCOCC2)cc1NC(=O)CNCc1ccccc1` was tested, and the Potency was inconclusive: 44.7 µM [inhibitor, single point]. `Nc1nc(SCc2ccccc2)ns1` was tested, and the “activity, negative = inhibition” value was inactive: -10.1%. `Cc1cc(C)nc(CCNC(=O)c2cc(COc3ccc(F)cc3Cl)on2)n1` was tested, and the Potency was inconclusive: 28.2 µM [inhibitor, single point]. With `CC1=C(C(=O)Nc2ccccc2)C(C(C)C)n2nc(SCc3ccccc3C)nc2N1` (stereo not drawn) the “activity, negative = inhibition” value was inactive: -8.09%. For `CCOc1ccc(-c2cn3c(n2)sc2cc(C(=O)NCCCN4CCCCC4)ccc23)cc1`, the “activity, negative = inhibition” value was inactive: -3.09%. In the case of `O=C(Nc1nc2ccc(F)cc2s1)c1cccc(S(=O)(=O)N2CCc3ccccc32)c1`, the Potency is reported as inconclusive: 12.6 µM [activator, partial curve, poor fit]. `Cc1noc(C)c1C(=O)OCC(=O)c1cc(C)n(Cc2ccccc2Cl)c1C` was tested, and the Potency was inconclusive: 20 µM [inhibitor, partial curve]. For `COc1cc2c(=O)n(Cc3ccco3)c(=O)n(CC(=O)c3ccc(Br)cc3)c2cc1OC`, the Potency was inconclusive: 35.5 µM [inhibitor, single point]. `COc1ccccc1C(=O)NCC(c1ccc(N(C)C)cc1)N1CCc2ccccc21` (stereo not drawn) was tested, and the Potency was inconclusive: 14.1 µM [inhibitor, partial curve]. For `O=C1[C@@H]2[C@H](C(=O)N1O)[C@H]1C=C[C@@H]2C1`, the “activity, negative = inhibition” value was inactive: -17.7%. In the case of `O=C(CCCn1c(=O)[nH]c2ccc(Br)cc2c1=O)N1CCN(c2cccc(Cl)c2)CC1`, the Potency is reported as inconclusive: 10 µM [inhibitor, partial curve]. In the case of `COCCCn1c(C)cc(C(=O)COC(=O)CCc2nc3ccccc3c(=O)[nH]2)c1C`, the Potency is reported as inconclusive: 14.1 µM [inhibitor, partial curve, poor fit]. In the case of `CCN(CC)C(=O)C1CCCN(c2ccc([N+](=O)[O-])cc2/C=N/NC(=O)c2ccc([N+](=O)[O-])cc2)C1` (stereo not drawn), the Potency is reported as inconclusive: 11.2 µM [inhibitor, partial curve, poor fit]. For `CCCCc1nn2c(=O)cc(COC(=O)c3ccc4c(c3)OCO4)nc2s1`, the Potency was inconclusive: 15.8 µM [inhibitor, partial curve].
